Reference: publication PMC5515408
The other results are listed elsewhere or left out. At the low end of the ranking the order means little.

Target: MAX:MAX (p21) (UniProt P61244-2)
Assay: protein-binding microarray (anti-MAX antibody)
Settings: PBM: 15 mM Tris-HCl pH 7.5, 100 mM KCl, 0.075% NP40, 7.5 mM beta-mercaptoethanol, 375 ng/ul BSA, 8 ng/ul poly(dA-dT):(dA-dT), 550 ng complex, 60 min, room …; high values mean tight binding; double strand, one strand shown; sequences stand for … in CCGGC…TTAATAGCTAAGATTACTATATCGACG

Row | Sequence | binding signal (log2 normalized fluorescence)
1 | TGAATTAGAGTA | -1.12
2 | TGAAAAAGCGTA | -0.28
3 | TGAACGTCAGTA | -0.37
4 | TGATAGATCGTA | -1.21
5 | TGAGGGGATGTA | 0.406
6 | TGATTTGCCGTA | -1.14
7 | TGAGTCTGCGTA | -0.699
8 | TGCCACGTGTTA | 3.28
9 | TGATGGTTTGTA | 0.0544
10 | TGACCCACAGTA | -0.0297
11 | TGAACGTAAGTA | -0.377
12 | TGACACGGCGTA | 0.815
13 | TGACATGTGTTA | 3.03
14 | TGTCACGTGCTA | 3.15
15 | TGAGTTCGCGTA | -0.997
16 | AGACTCGTGGTA | 3.06
17 | TGACACGTGCCC | 3.16
18 | TGATTAAACGTA | -0.848
19 | TGATCAGACGTA | -0.501
20 | TGATTCGTGGTA | 0.256
21 | TGACGCGATGTA | 0.367
22 | TGATATAGCGTA | -0.899

Row | Sequence | binding signal (log2 normalized fluorescence)
23 | TGATGAAATGTA | -0.711
24 | TGAAGCTCCGTA | -0.756
25 | TGAATGTTAGTA | 0.191
26 | TGACAACTTGTA | -0.311
27 | TGAGCCGGAGTA | -1.29
28 | TCGAACGTGGTA | 2.47
29 | TGAAGCCATGTA | 0.0355
30 | TGAGCTCCGGTA | -0.975
31 | TGCCGCGTGGTA | 3.21
32 | TGATTTTATGTA | -1.25
33 | TGAACAGCCGTA | -0.516
34 | TGAGAGACGGTA | -0.752
35 | TGAGGATTCGTA | -1.1
36 | TGAGTAACAGTA | -1.09
37 | TGAGATTCGGTA | -1.15
38 | TGATCGCGGGTA | -0.275
39 | TGATCCCATGTA | 1.33
40 | TGAGTGAATGTA | -0.414
41 | TGAGCATGGGTA | 2.27
42 | TAACACATGGTA | 3.13
43 | TGACTCAATGTA | -0.364
44 | TGAGTATCGGTA | -1.27

Row | Sequence | binding signal (log2 normalized fluorescence)
45 | TGAATACAAGTA | -0.759
46 | TGACTAACAGTA | -0.714
47 | TTACACCAGGTA | 0.598
48 | TGAGATTCTGTA | -1.05
49 | TGATAATCAGTA | -0.534
50 | TGAGCTGCGGTA | -0.646
51 | TAACTCGTTGTA | 1.1
52 | TGAGTAGGAGTA | -1.17
53 | TGACACGTAAAA | 0.695
54 | TGACCGAATGTA | 0.0274
55 | TGACTGGCTGTA | -0.377
56 | TGATGACATGTA | 0.574
57 | TGACACGTGGTC | 3.21
58 | TGAGGCGGGGTA | 0.948
59 | TGATTGCCTGTA | -0.395
60 | TGATATAGTGTA | -0.641
61 | TGAGAATTAGTA | -1.24
62 | TGAAGTGAGGTA | 0.0729
63 | TGATACATGGTA | 0.557
64 | TGACAGTGAGTA | -0.256
65 | TGATCCGCAGTA | -0.645
66 | TGACATGCGGTA | 2.99

Row | Sequence | binding signal (log2 normalized fluorescence)
67 | TGACACGTGGGG | 3.36
68 | TCATACGTGGAA | 1.28
69 | TGAGGGTCCGTA | -0.522
70 | TGAGAAAGCGTA | -0.868
71 | TGAACTTCAGTA | -0.481
72 | TGATATCGCGTA | -0.66
73 | TGAGGTATTGTA | -0.653
74 | TGAAAAAAAGTA | -0.993
75 | TGAACGTGTGTA | 2.45
76 | TGATACCTGGTG | -0.298
77 | TGACATTTGGTG | -0.316
78 | TGATTCGTCGTA | -1.04
79 | TGATGCCCGGTA | -0.331
80 | TTCCACGTGGTA | 3.13
81 | TGCCACGTTGTA | 3.09
82 | TGAGATTCCGTA | -1.11
83 | TGGCTCGTGGTA | 2.78
84 | TGACTTGGTGTA | -0.513
85 | TGAGTGAAGGTA | -0.419
86 | TGACACGTGAGC | 3.09
87 | TGAGTTTACGTA | -1.12
88 | TGATTGTTCGTA | -0.852
